Measurements taken from PMC4336329 (PLoS ONE, 2015).
In all, about 310,000 compounds went through this assay and about 2,200 (0.71%) showed an effect of 50% or more. Effects have a minus sign here. This is one part of the list.

target: human ether-à-go-go-related gene (hERG) potassium channel (human, UniProt Q12809); test: primary screen, population patch clamp on CHO cells stably expressing hERG
Sequence (Q12809 whole entry, looked up): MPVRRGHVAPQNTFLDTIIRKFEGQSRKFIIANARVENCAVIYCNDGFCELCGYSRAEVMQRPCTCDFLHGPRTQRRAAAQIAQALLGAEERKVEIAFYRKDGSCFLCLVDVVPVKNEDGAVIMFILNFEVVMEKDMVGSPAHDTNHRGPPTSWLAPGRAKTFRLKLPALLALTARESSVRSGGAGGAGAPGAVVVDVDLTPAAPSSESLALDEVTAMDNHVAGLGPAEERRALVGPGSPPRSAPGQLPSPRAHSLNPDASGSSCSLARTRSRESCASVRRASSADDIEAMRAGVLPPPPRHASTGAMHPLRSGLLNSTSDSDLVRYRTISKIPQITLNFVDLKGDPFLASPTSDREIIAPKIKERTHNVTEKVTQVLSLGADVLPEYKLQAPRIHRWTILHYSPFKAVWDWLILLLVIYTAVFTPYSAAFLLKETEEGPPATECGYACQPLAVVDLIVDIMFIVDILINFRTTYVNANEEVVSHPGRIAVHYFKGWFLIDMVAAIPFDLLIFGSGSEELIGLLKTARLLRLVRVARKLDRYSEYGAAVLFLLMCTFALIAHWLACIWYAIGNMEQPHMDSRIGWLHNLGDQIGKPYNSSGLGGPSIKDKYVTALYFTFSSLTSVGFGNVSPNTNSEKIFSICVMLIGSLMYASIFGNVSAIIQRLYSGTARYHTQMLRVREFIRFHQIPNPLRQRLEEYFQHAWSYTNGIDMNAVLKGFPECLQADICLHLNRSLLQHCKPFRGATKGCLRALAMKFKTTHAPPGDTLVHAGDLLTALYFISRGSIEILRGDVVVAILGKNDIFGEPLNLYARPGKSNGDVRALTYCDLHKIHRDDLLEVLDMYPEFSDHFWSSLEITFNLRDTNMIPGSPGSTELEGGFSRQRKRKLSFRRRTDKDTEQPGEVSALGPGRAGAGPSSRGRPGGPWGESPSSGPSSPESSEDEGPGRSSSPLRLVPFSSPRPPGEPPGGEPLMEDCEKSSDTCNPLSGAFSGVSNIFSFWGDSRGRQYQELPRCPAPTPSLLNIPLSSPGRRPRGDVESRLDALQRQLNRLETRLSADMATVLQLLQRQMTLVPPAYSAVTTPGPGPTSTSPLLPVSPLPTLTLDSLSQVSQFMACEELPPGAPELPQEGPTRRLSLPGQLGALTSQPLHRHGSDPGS

Row | Compound | hERG current change (%, negative = inhibition) at 1uM
1 | O=C(NC1CCOc2ccccc21)c1ccccn1 (stereo not shown) | 9.69%
2 | CN(C)/C=C1/C(=O)N(c2ccc([N+](=O)[O-])cc2)N=C1c1ccccc1 | -0.615%
3 | COc1ccc(-n2cc(CNCCc3cscn3)c(-c3ccccc3Cl)n2)cc1 | -3.2%
4 | Cc1ccc2c(c1)[C@H]1OCC[C@H]1[C@@H](c1ccncc1)N2 | 14.5%
5 | NC(=O)c1ccc(-n2nnnc2SCC(=O)NC2CCCCC2)cc1 | 4.41%
6 | Cc1cc(NC(=O)CSc2nc(=O)cc(N)n2-c2ccc(Cl)cc2)no1 | 9.47%
7 | Cn1c(N)c(Sc2ccc(F)cc2)c(=O)n(C)c1=O | 14.2%
8 | Cc1ccc2c(c1)C(=O)N(CCCCO)C2=O | 9.59%
9 | CC(C)N(Cc1nc(-c2ccc(Cl)cc2)no1)Cc1nccn1C | -11%
10 | Cc1nn(C)cc1S(=O)(=O)NCc1ccc2c(c1)OCO2 | 9.84%
11 | O=C(Nc1nc(-c2ccccn2)cs1)c1ncc(Cl)c(Cl)c1Cl | 3.67%
12 | CCCCCN(C(=O)NC(=O)NC(C)CC)S(C)(=O)=O (stereo not shown) | 14.4%
13 | O=c1c2ccccc2ncn1-c1ccccc1[N+](=O)[O-] | 16.6%
14 | CCOc1ccc(NC(=O)C2CCN(S(=O)(=O)c3cccnc3)CC2)cc1 | 4.16%
15 | CC(=O)N1CCc2cc(S(=O)(=O)NC(C(=O)Nc3ccc4c(c3)OCCO4)C(C)C)ccc21 (stereo not shown) | 15.6%
16 | Cc1cc(N2CCCN(C)CC2)nc2cc(Cl)ccc12 | -22.8%
17 | Cc1csc(SCC(=O)NCc2cccs2)n1 | 6.19%
18 | CS(=O)(=O)N(CC(=O)Nc1ccccc1C(=O)NCc1ccco1)c1ccc2c(c1)OCCO2 | 6.3%
19 | CN(C)CCCN(C(=O)COc1ccc(Cl)cc1)c1nc2ccc(F)cc2s1.Cl | 8.45%
20 | CCN(CC)C(=O)c1cc(-c2ccc3c(c2)OCO3)on1 | 15.6%
21 | COc1ccccc1NC(=O)Cn1c(=O)n2nc(C)nc2c2ccccc21 | 6.94%
22 | Cc1ccc2c(c1)N(Cc1cccc(Cl)c1)C(=O)c1cccnc1O2 | -9.13%

Row | Compound | hERG current change (%, negative = inhibition) at 1uM
23 | CCOc1cc(C2CC(=O)N3CN(C4CCCCC4)CSC3=C2C#N)ccc1O (stereo not shown) | 10.5%
24 | O=C(CSc1nc2ncc(Cl)cc2[nH]1)Nc1cccc(F)c1 | 17%
25 | CC1CC(C)CN(S(=O)(=O)CCNC(=O)c2ccccc2)C1 (stereo not shown) | 9.67%
26 | Brc1ccc(C2Nc3cccc4cccc(c34)N2)s1 | 12.8%
27 | Cc1ccc(OCC(=O)NC(C)c2ccccc2)cc1 (stereo not shown) | 6.34%
28 | O=C(Nc1ccc(N2CCOCC2)nc1)c1ccc(F)cc1 | 3.3%
29 | CCCCCCSc1cccc(-c2nc3ccc(Cl)cn3c2NCc2ccccc2)c1.O=C(O)C(F)(F)F | 6.25%
30 | N#C/C(=C\c1cccc([N+](=O)[O-])c1)c1ccccn1 | 6.88%
31 | COc1ccc(Cl)cc1N1C(=O)C2CCCN2C1c1cccc(F)c1 (stereo not shown) | -4.49%
32 | CCn1nnnc1SCC(=O)N1CCCc2ccccc21 | 6.42%
33 | NC(=O)NC(Cc1ccccc1)C(=O)N1CCN(S(=O)(=O)c2ccc(Cl)cc2)CC1 (stereo not shown) | 7.12%
34 | CCc1ccc(N2C(=O)C3C4C=CC(CC4)C3C2=O)cc1 (stereo not shown) | 13.5%
35 | O=S(=O)(c1ccc(C2CCCCC2)cc1)N1CCCC1 | 17.8%
36 | Cc1ccc2c(c1)nnn2C1CCN(S(=O)(=O)c2ccc(C(=O)NC3CCCC3)cc2)CC1 | 12.8%
37 | COc1ccc(NC(=O)c2ccccc2-c2ccccc2)c(C)c1 | 9.07%
38 | CCN(C(=O)Cc1ccc(NC2=NC3CS(=O)(=O)CC3S2)cc1)c1ccccc1 (stereo not shown) | 0.874%
39 | COC(=O)c1cc(Br)ccc1-c1ccc(/C=N/n2nnnc2N)o1 | 2.64%
40 | Fc1ccccc1CN1CCCCCCC1 | -6.99%
41 | O=C(c1ccc(Br)o1)N1CCc2ccccc21 | 6.62%
42 | CCC(=Nc1ccccc1)C1=C(O)CCCC1=O | 15.8%
43 | N/C(=N\OS(=O)(=O)c1cccc([N+](=O)[O-])c1)c1ccncc1 | 6.19%
44 | O=C(O)/C=C\C(=O)Nc1cc(O)ccc1[N+](=O)[O-] | 11.1%

Row | Compound | hERG current change (%, negative = inhibition) at 1uM
45 | Cc1ccc(C(=O)CCC(=O)OCC(=O)NNC(=O)c2ccc([N+](=O)[O-])cc2)cc1 | -7.1%
46 | COc1cccc(OCC(=O)NNC(=S)Nc2ccc(Cl)cc2Cl)c1 | 10%
47 | O=C(COc1ccc2c(c1)OCO2)Nc1ccc2c(c1)oc1ccccc12 | 14.7%
48 | COC(=O)CC1C(=O)NCCN1C(=O)CSc1nc2ccccc2c(=O)n1CC(C)C (stereo not shown) | 11.6%
49 | CCN1C(=O)C(CC(=O)Nc2ccc(OC)cc2)N(CCc2ccc(OC)cc2)C1=S (stereo not shown) | 10.9%
50 | O=C(NC1CCN(Cc2ccc(Cl)cc2Cl)CC1)c1ccccc1 | -6.37%
51 | N#Cc1ccsc1NC(=O)CN1C(=O)NC2(CCCC2)C1=O | 5%
52 | Cc1cc(C)c2[nH]c(C(=O)N3CCC(n4nccc4NC(=O)C4CC4)CC3)c(C)c2c1 | -2.86%
53 | O=C(O)CC(CC(=O)Nc1ccc2ccccc2n1)c1ccccc1 (stereo not shown) | 9.68%
54 | CC(=O)Nc1ccc(S(=O)(=O)Nc2cccc(NC(=O)C(C)(C)C)c2)cc1 | 19.3%
55 | Cc1ccc(C(=O)NNC(=O)c2ccc3ccccc3c2O)cc1 | -4.58%
56 | CCCNC(=O)C(Cc1ccccc1)NS(=O)(=O)c1ccc2c(c1)c(=O)n(C)c(=O)n2C (stereo not shown) | 3.66%
57 | CCC1=[N+](C)CCn2c(C)ccc21.[I-] | 19%
58 | CC(C)CC(=O)Nc1c2c(nn1-c1cccc(Cl)c1)CS(=O)(=O)C2 | -12.1%
59 | Cc1ccc([N+](=O)[O-])cc1S(=O)(=O)Nc1ccc(OCC(=O)N2CCOCC2)cc1 | -6.23%
60 | CCN(CC)CCn1c2c(c(SCC(=O)Nc3ccc(C(C)C)cc3)nc1=O)CCC2 | -16.4%
61 | COc1cc(C(Nc2ccc(S(=O)(=O)N3CCC(C)CC3)cc2)C(=O)NCC2CCCO2)cc(OC)c1OC (stereo not shown) | -2.66%
62 | CC(C)[C@H](Nc1ccc(C(F)(F)F)cc1[N+](=O)[O-])C(=O)O.[Cl-] | 14.3%
63 | COc1ccc(C)cc1NC(=O)C1CCCN(S(=O)(=O)c2ccc3[nH]c(=O)ccc3c2)C1 (stereo not shown) | 4.21%
64 | Cc1cccc(-n2ncc3c(N(C)C4CCCCC4)ncnc32)c1 | -10.4%
65 | Cc1cnc(C)c(N2CCC(C(=O)NC(C)c3cccs3)CC2)n1 (stereo not shown) | 2.13%
66 | CCCCCC(=O)Nc1nnc(CCc2ccccc2)s1 | 8.96%

Row | Compound | hERG current change (%, negative = inhibition) at 1uM
67 | O=C(O)CSc1ncnc2sc3c(c12)CCC3 | 14.6%
68 | O=C(Nc1nn[nH]n1)C12CC3CC(CC(C3)C1)C2 | 20.4%
69 | COc1ccccc1CC1/C(=N/O)C2CCN1CC2.Cl (stereo not shown) | 7.03%
70 | COc1cc(-c2ccc3sc(-c4ccsc4)c(C#CCO)c3c2)cc(OC)c1OC | 18.3%
71 | COc1cc(C(=O)O)nc2ccc([N+](=O)[O-])cc12 | 8.09%
72 | Nc1ccc2nc(SCc3ccccc3F)sc2c1 | 7.88%
73 | Cc1cc(CNCc2c(C(=O)N(C)Cc3ccccc3)nc3ccccn23)nn1C | 10.8%
74 | CCOc1cc(C(=S)N2CCCC2)ccc1OCc1ccccc1 | 16%
75 | COc1ccc(N2C(=O)CC(NCC#N)C2=O)cc1 (stereo not shown) | 6.33%
76 | COc1ccc(CNc2nc(-c3ccccc3)nn2C(=O)c2cccs2)cc1 | 4.21%
77 | O=c1[nH]c(=O)n(Cc2ccco2)c(O)c1C=NCCCn1ccnc1 | 11.1%
78 | COCCCN1C(=O)C(=O)/C(=C(/O)c2ccc(OCC(C)C)cc2C)C1c1cccnc1 (stereo not shown) | -0.684%
79 | CC(C)CC(NC(N)=O)C(=O)Nc1ccc(Oc2ccccc2)cc1 (stereo not shown) | 10.6%
80 | Oc1ccccc1N1CCN(C(=S)Nc2ccc(SC(F)F)cc2)CC1 | 11.5%
81 | Cc1ccc(NS(=O)(=O)c2cccc(C(=O)NCC(c3ccco3)N3CCCC3)c2)cc1 (stereo not shown) | -9.09%
82 | C[C@]12C=CC(=O)C=C1CC[C@H]1[C@@H]3C[C@@H](O)[C@](O)(C(=O)CO)[C@@]3(C)C[C@H](O)[C@@]12F | 11.6%
83 | CCc1nnc(NS(=O)(=O)c2ccc(NC(=O)CCC(=O)O)cc2)s1 | 19.5%
84 | Cc1ccc(S(=O)(=O)C2(C(=O)N3CCN(c4ccccc4F)CC3)CC2)cc1 | 8.15%
85 | CCC(C)[C@H](NC(=O)N1CC(=O)Nc2ccccc21)C(=O)N[C@@H](C(=O)O)c1ccccc1 (stereo partly shown) | 17.2%
86 | CC1(C)CC(=O)C(C(C2=C(O)CC(C)(C)CC2=O)c2ccco2)C(=O)C1 (stereo not shown) | 9.36%
87 | Cc1ccc(CNc2nc(N)c([N+](=O)[O-])c(NCc3ccccc3)n2)cc1 | 12.9%
88 | Cc1oc2nc(SCCCC(=O)NCCCO)nc(N)c2c1C | 11%
